The source of these data is paper PMC9911399, “Two distinct binding modes provide the RNA-binding protein RbFox with extraordinary sequence specificity”.

T1: RBFOX1 RRM RbFoxmut (Fox-RRM*) (Homo sapiens, UniProt Q9NWB1 109-208, R118D;E147R;N151S;E152T)
T1 sequence: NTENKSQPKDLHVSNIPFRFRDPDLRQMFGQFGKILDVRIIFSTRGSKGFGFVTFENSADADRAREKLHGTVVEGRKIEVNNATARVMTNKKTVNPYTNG

B1: CGGUCGU (DNA:RNA)
RNA: GGGAGACCGGAAUUCAGAUUGUCCCGGUCGUUUAAAUCCCGUCGUAGCCACCA
DNA 1: CAATCTGAATTCCGGTCTCCC
DNA 2: TGGTGGCTACGACGGGATT
B2: UUGGUGG (DNA:RNA)
RNA: B1 RNA with C25U, G26U, U28G, C29U, U31G
DNA 1: CAATCTGAATTCCGGTCTCCC
DNA 2: TGGTGGCTACGACGGGATT
B3: ACAGGUU (DNA:RNA)
RNA: B1 RNA with C25A, G26C, G27A, U28G, C29G, G30U
DNA 1: CAATCTGAATTCCGGTCTCCC
DNA 2: TGGTGGCTACGACGGGATT
B4: UAGCGCC (DNA:RNA)
RNA: B1 RNA with C25U, G26A, U28C, C29G, G30C, U31C
DNA 1: CAATCTGAATTCCGGTCTCCC
DNA 2: TGGTGGCTACGACGGGATT
B5: CGCCGGU (DNA:RNA)
RNA: B1 RNA with G27C, U28C, C29G
DNA 1: CAATCTGAATTCCGGTCTCCC
DNA 2: TGGTGGCTACGACGGGATT
B6: CACGAAC (DNA:RNA)
RNA: B1 RNA with G26A, G27C, U28G, C29A, G30A, U31C
DNA 1: CAATCTGAATTCCGGTCTCCC
DNA 2: TGGTGGCTACGACGGGATT
B7: UCAUUCU (DNA:RNA)
RNA: B1 RNA with C25U, G26C, G27A, C29U, G30C
DNA 1: CAATCTGAATTCCGGTCTCCC
DNA 2: TGGTGGCTACGACGGGATT
B8: CAUCGUU (DNA:RNA)
RNA: B1 RNA with G26A, G27U, U28C, C29G, G30U
DNA 1: CAATCTGAATTCCGGTCTCCC
DNA 2: TGGTGGCTACGACGGGATT
B9: GUCCUAA (DNA:RNA)
RNA: GGGAGACCGGAAUUCAGAUUGUCCGUCCUAAUUAAAUCCCGUCGUAGCCACCA
DNA 1: CAATCTGAATTCCGGTCTCCC
DNA 2: TGGTGGCTACGACGGGATT
B10: GAGGGCU (DNA:RNA)
RNA: B1 RNA with C25G, G26A, U28G, C29G, G30C
DNA 1: CAATCTGAATTCCGGTCTCCC
DNA 2: TGGTGGCTACGACGGGATT
B11: CGAGGUA (DNA:RNA)
RNA: B1 RNA with G27A, U28G, C29G, G30U, U31A
DNA 1: CAATCTGAATTCCGGTCTCCC
DNA 2: TGGTGGCTACGACGGGATT
B12: CGUAGCC (DNA:RNA)
RNA: B1 RNA with G27U, U28A, C29G, G30C, U31C
DNA 1: CAATCTGAATTCCGGTCTCCC
DNA 2: TGGTGGCTACGACGGGATT
B13: AGAGACG (DNA:RNA)
RNA: B1 RNA with C25A, G27A, U28G, C29A, G30C, U31G
DNA 1: CAATCTGAATTCCGGTCTCCC
DNA 2: TGGTGGCTACGACGGGATT
B14: GUGUCAG (DNA:RNA)
RNA: B1 RNA with C25G, G26U, G30A, U31G
DNA 1: CAATCTGAATTCCGGTCTCCC
DNA 2: TGGTGGCTACGACGGGATT
B15: GCCCACA (DNA:RNA)
RNA: B9 RNA with U26C, U29A, A30C
DNA 1: CAATCTGAATTCCGGTCTCCC
DNA 2: TGGTGGCTACGACGGGATT
B16: GCAUGGU (DNA:RNA)
RNA: B1 RNA with C25G, G26C, G27A, C29G
DNA 1: CAATCTGAATTCCGGTCTCCC
DNA 2: TGGTGGCTACGACGGGATT
B17: AAUGCCA (DNA:RNA)
RNA: B1 RNA with C25A, G26A, G27U, U28G, G30C, U31A
DNA 1: CAATCTGAATTCCGGTCTCCC
DNA 2: TGGTGGCTACGACGGGATT
B18: GGAACGG (DNA:RNA)
RNA: B1 RNA with C25G, G27A, U28A, U31G
DNA 1: CAATCTGAATTCCGGTCTCCC
DNA 2: TGGTGGCTACGACGGGATT
B19: CCUUCUG (DNA:RNA)
RNA: B1 RNA with G26C, G27U, G30U, U31G
DNA 1: CAATCTGAATTCCGGTCTCCC
DNA 2: TGGTGGCTACGACGGGATT
B20: CCCCCGC (DNA:RNA)
RNA: B1 RNA with G26C, G27C, U28C, U31C
DNA 1: CAATCTGAATTCCGGTCTCCC
DNA 2: TGGTGGCTACGACGGGATT
B21: CAAACAU (DNA:RNA)
RNA: B1 RNA with G26A, G27A, U28A, G30A
DNA 1: CAATCTGAATTCCGGTCTCCC
DNA 2: TGGTGGCTACGACGGGATT
B22: CCCGCCC (DNA:RNA)
RNA: B1 RNA with G26C, G27C, U28G, G30C, U31C
DNA 1: CAATCTGAATTCCGGTCTCCC
DNA 2: TGGTGGCTACGACGGGATT
B23: AAUUUUA (DNA:RNA)
RNA: B9 RNA with G25A, U26A, C27U, C28U, A30U
DNA 1: CAATCTGAATTCCGGTCTCCC
DNA 2: TGGTGGCTACGACGGGATT
B24: AAUGUCC (DNA:RNA)
RNA: B9 RNA with G25A, U26A, C27U, C28G, A30C, A31C
DNA 1: CAATCTGAATTCCGGTCTCCC
DNA 2: TGGTGGCTACGACGGGATT
B25: AGUCGGC (DNA:RNA)
RNA: B1 RNA with C25A, G27U, U28C, C29G, U31C
DNA 1: CAATCTGAATTCCGGTCTCCC
DNA 2: TGGTGGCTACGACGGGATT
B26: GAAUAAC (DNA:RNA)
RNA: B9 RNA with U26A, C27A, C28U, U29A, A31C
DNA 1: CAATCTGAATTCCGGTCTCCC
DNA 2: TGGTGGCTACGACGGGATT
B27: GUUGAGU (DNA:RNA)
RNA: B1 RNA with C25G, G26U, G27U, U28G, C29A
DNA 1: CAATCTGAATTCCGGTCTCCC
DNA 2: TGGTGGCTACGACGGGATT
B28: AAGGGGU (DNA:RNA)
RNA: B1 RNA with C25A, G26A, U28G, C29G
DNA 1: CAATCTGAATTCCGGTCTCCC
DNA 2: TGGTGGCTACGACGGGATT
B29: AUUGUUC (DNA:RNA)
RNA: B9 RNA with G25A, C27U, C28G, A30U, A31C
DNA 1: CAATCTGAATTCCGGTCTCCC
DNA 2: TGGTGGCTACGACGGGATT
B30: GUUCGUU (DNA:RNA)
RNA: B9 RNA with C27U, U29G, A30U, A31U
DNA 1: CAATCTGAATTCCGGTCTCCC
DNA 2: TGGTGGCTACGACGGGATT
B31: ACUUCUU (DNA:RNA)
RNA: B1 RNA with C25A, G26C, G27U, G30U
DNA 1: CAATCTGAATTCCGGTCTCCC
DNA 2: TGGTGGCTACGACGGGATT

Changes are numbered by the printed parent chain; changes in the protein carry UniProt numbers. This is one part of the list.

The experiment has as its target T1, RBFOX1 RRM RbFoxmut (Fox-RRM*). The experiment in a line: EMSA; HiTS-Eq, 1 nM pool, 10 min; buffer printed only for the single-RNA assays: 10 mM Tris pH 7.5, 150 mM NaCl, 3.4 mM EDTA, 0.001% NP-40, 30 C. The following applies: tags: His6 N-terminal (pET28a); label: 5' 32P. The method in brief: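 These values rest on relative association constants, computed from read-count changes of each RNA species versus the control reaction and normalised to the cognate motif. Reads came from free RNA recovered by 8% native PAGE after purified RbFox RRM (wild type or mutant) at increasing concentrations was equilibrated for 10 min in 50 µL with 1 nM of a 5′-radiolabelled pool with 7 randomized nucleotides and DNA-annealed flanks.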
(In general: A gel shift assay detects complexes by their altered migration in electrophoresis.)
As for B1, the binding signal is 0.104 KA relative to UGCAUGU. Take B2: the binding signal is 0.126 KA relative to UGCAUGU. For B3, the binding signal was 0.108 KA relative to UGCAUGU. B4: the binding signal was 0.147 KA relative to UGCAUGU. Regarding B5, the binding signal is 0.104 KA relative to UGCAUGU. B6: the binding signal was 0.0998 KA relative to UGCAUGU. For the molecule B7, the binding signal was 0.0768 KA relative to UGCAUGU. The same measure for B8: 0.125 KA relative to UGCAUGU. Turning to B9, the binding signal is 0.0984 KA relative to UGCAUGU. For the molecule B10, the binding signal was 0.0788 KA relative to UGCAUGU. On to B11, for which the binding signal was 0.165 KA relative to UGCAUGU. Consider B12, for which the binding signal was 0.167 KA relative to UGCAUGU. Consider B13, for which the binding signal was 0.089 KA relative to UGCAUGU. With B14, the binding signal was 0.137 KA relative to UGCAUGU. In the case of B15, the binding signal was 0.0838 KA relative to UGCAUGU. In the case of B16, the binding signal was 0.753 KA relative to UGCAUGU. As for B17, the binding signal was 0.0793 KA relative to UGCAUGU. The same measure for B18: 0.221 KA relative to UGCAUGU; for B19: 0.082 KA relative to UGCAUGU; for B20: 0.151 KA relative to UGCAUGU.

Regarding B21, the binding signal was 0.0994 KA relative to UGCAUGU. Consider B22, for which the binding signal was 0.0484 KA relative to UGCAUGU. The same measure for B23: 0.111 KA relative to UGCAUGU; for B24: 0.0792 KA relative to UGCAUGU; for B25: 0.0981 KA relative to UGCAUGU.

As for B26, the binding signal is 0.126 KA relative to UGCAUGU. Turning to B27, the binding signal was 0.151 KA relative to UGCAUGU. Take B28: the binding signal is 0.0988 KA relative to UGCAUGU.

In the case of B29, the binding signal is 0.0975 KA relative to UGCAUGU.

Take B30: the binding signal was 0.131 KA relative to UGCAUGU.

B31: the binding signal was 0.0822 KA relative to UGCAUGU.
